Out of some 310,000 compounds screened, about 14,000 (4.5%) showed an effect of 50% or more. Effects have a minus sign here. The list shows a part of the results.
Molecular target: human ether-à-go-go-related gene (hERG) potassium channel (human, UniProt Q12809)
Experiment: primary screen, population patch clamp on CHO cells stably expressing hERG
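Also: peak tail current of the secondary pulse compared with the same well before compound.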

Chain of human ether-à-go-go-related gene (hERG) potassium channel (Q12809 whole entry, looked up): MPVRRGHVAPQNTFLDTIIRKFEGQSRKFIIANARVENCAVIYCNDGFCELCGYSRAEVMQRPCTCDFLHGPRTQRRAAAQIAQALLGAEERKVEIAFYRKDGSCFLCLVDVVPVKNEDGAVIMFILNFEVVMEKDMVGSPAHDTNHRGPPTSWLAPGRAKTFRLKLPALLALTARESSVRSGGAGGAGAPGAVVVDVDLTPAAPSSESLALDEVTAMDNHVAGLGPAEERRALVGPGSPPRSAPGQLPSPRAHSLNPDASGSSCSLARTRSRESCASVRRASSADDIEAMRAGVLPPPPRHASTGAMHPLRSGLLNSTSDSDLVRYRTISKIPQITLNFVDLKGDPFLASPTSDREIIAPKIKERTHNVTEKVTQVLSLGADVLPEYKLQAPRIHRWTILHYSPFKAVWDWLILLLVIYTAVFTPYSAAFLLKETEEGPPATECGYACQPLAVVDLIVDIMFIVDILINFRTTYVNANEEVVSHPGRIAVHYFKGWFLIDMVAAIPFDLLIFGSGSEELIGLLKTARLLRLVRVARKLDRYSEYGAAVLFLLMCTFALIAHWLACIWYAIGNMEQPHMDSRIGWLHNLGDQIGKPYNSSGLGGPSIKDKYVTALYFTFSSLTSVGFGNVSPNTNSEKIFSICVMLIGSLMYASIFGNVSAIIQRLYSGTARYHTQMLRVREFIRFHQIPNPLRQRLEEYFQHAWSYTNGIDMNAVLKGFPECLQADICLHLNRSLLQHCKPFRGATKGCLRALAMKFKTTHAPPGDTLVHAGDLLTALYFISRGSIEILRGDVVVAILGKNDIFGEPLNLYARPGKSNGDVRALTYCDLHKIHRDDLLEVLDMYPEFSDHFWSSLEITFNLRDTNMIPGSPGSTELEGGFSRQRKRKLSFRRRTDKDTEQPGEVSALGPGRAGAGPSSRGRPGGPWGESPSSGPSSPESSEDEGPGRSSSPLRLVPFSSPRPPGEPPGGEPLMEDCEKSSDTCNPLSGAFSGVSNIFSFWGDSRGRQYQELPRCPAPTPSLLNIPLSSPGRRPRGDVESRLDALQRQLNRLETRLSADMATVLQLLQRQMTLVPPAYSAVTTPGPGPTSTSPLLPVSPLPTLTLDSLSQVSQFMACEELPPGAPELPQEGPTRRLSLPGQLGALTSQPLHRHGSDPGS

SMILES	hERG current change (%, negative = inhibition) at 10uM
Cc1cccc(C(=O)NNC(=O)CCn2nnc3ccccc32)c1	12.7%
Oc1c(Cl)cc(Cl)cc1CNn1cnnc1	23.1%
COc1ccc(C(C)(C)C)cc1NC(=O)C1C2C=CC(C2)C1C(=O)O (centres unmarked)	12.5%
Cc1ccc(C(=O)NCC(c2ccco2)N2CCc3ccccc3C2)cc1C (centres unmarked)	-5.02%
Cc1ccc(C#CC[N+](C)(C)CC#Cc2ccccc2)cc1.[Br-]	-75.9%
COc1ccc(-n2c(SC(C)C(=O)N3CCOCC3)nc3ccccc3c2=O)cc1 (centres unmarked)	6.84%
O=C(Nc1sc2c(c1C(=O)O)CCC2)c1cccc(Cl)c1	35.1%
Cl.O=C(NCCNCCO)c1c(O)c2cccc3c2n(c1=O)CCC3	-1.89%
[O-]/[N+](=C\c1ccccc1)c1ccccc1	8.94%
CCCOc1cccc(C2/C(=C(\O)c3ccc4c(c3)OCCO4)C(=O)C(=O)N2CCCn2ccnc2)c1 (centres unmarked)	14.7%
O=C(CC(=O)N/N=C/c1c(F)cccc1Cl)NCc1ccccc1	-10.8%
O=C(Nc1nc2ccccc2[nH]1)c1ccc(S(=O)(=O)N2CCOCC2)cc1	2.85%
O=C(N/N=C/c1cccc([N+](=O)[O-])c1)C1CC1c1ccccc1 (centres unmarked)	-2.96%
CN(CCc1ccccn1)C(=O)CCc1nnc(CCCc2ccccc2)o1	2.54%
Cc1nn(-c2ccccc2)c(C)c1/C=N/NC(=O)c1cc(-c2cccs2)[nH]n1	1.84%
CSc1nc2c(c(=O)n1Cc1ccccc1)SC(C)C2 (centres unmarked)	-21.2%
O=C(N/N=C/c1ccccc1C(F)(F)F)c1ccc(O)cc1	-3.87%
O=c1c2c(ncn2C2CCCC2)n(Cc2ccccc2)c(=O)n1CCOc1ccccc1	-8.64%
CCOC(=O)N1CCC(NS(=O)(=O)c2ccc(C)c(Cl)c2)CC1	-37%
COc1ccc(-c2cc(C(F)F)n3ncc(C(=O)N4CCN(C)CC4)c3n2)cc1	-9.23%
Cc1ccc(C2/C(=C(/O)c3ccc(OC(C)C)cc3)C(=O)C(=O)N2CCN2CCOCC2)cc1 (centres unmarked)	-2%
CN(C)CCN=Cc1c(O)n(C2CCCCCC2)c(=O)[nH]c1=O	7.08%
CCN(CC)CCSc1nc(O)c(C(C)C)c(=O)[nH]1.Cl	15.7%

SMILES	hERG current change (%, negative = inhibition) at 10uM
Cc1c(C(=O)NCc2ccco2)oc2ccc(S(=O)(=O)N3CCC4(CC3)OCCO4)cc12	-19.7%
Cc1cc(C)n(-c2nncc(-c3ccccc3)n2)n1	-15.4%
CCN1C(=O)[C@H]2[C@@H](c3ccc(OC)cc3)N3C(=O)CN(CC4CC4)C(=O)[C@@]3(C)[C@H]2C1=O	-25%
Cc1csc(CN(C)C(=O)CC2C(=O)NCCN2Cc2ccc(Cl)c(F)c2)n1 (centres unmarked)	4.4%
CCOc1ccc(N(CC(=O)Nc2ccc(C)c(C)c2)S(=O)(=O)c2c(C)[nH]c(=O)[nH]c2=O)cc1	7.1%
CN(CC(=O)Nc1ccccc1Br)C(=O)c1ccccc1Cc1ccccc1	-20.2%
Cc1ccc(C(C)C)cc1OCC(=O)Nc1ccc(N2CCCCC2)cc1	17.8%
COCCn1nnnc1CN1CCSCC1.Cl	29.7%
O=[N+]([O-])c1ccc(-c2cnc[nH]2)cc1	-10.5%
O=C(CCc1c[nH]c2ccccc12)NC(Cc1c[nH]c2ccccc12)C(=O)O (centres unmarked)	21.2%
CC(C)(C)OC(=O)NCCCCCc1nnc(SCc2ccc(F)cc2)o1	-7.18%
Cc1nn(C)c(C)c1CN(C)S(=O)(=O)c1ccc(F)cc1	-4.76%
CN1OCC(S(=O)(=O)c2ccccc2)C1c1ccccc1 (centres unmarked)	2.44%
COc1ccc(-n2nc(C(=O)NCC(=O)N3CCOCC3)c3ccccc3c2=O)cc1Cl	8.9%
C[N+]12CCCCC1C(COC(=O)c1ccc3c(c1)OCO3)CCC2.[I-] (centres unmarked)	15.3%
CCn1c(COc2ccccc2C)nnc1SCC(=O)N1CCN(c2ccccc2)CC1	-21.5%
CC1CCCN(C(=O)CCc2ccccc2)C1 (centres unmarked)	-5.7%
Cc1ccc(P(=O)(OCCN2CCOCC2)C(C)(C)C)o1 (centres unmarked)	-4.4%
O=C(Nc1ccc(Oc2ccccc2)nc1)C1CCN(Cc2cccc(F)c2)CC1	-49.8%
Cc1cc(NCc2ccc(F)cc2Cl)n2nnnc2n1	7.1%
COc1ccc(/C=N/n2c(-c3ccco3)nc3ccccc3c2=O)cc1	10.4%
COc1cc2cc(CN(Cc3cccnc3)C(=O)Nc3ccccc3)c(=O)[nH]c2cc1OC	-21.8%
O=C(O)C1CCCCN1S(=O)(=O)c1ccc2ccccc2c1 (centres unmarked)	-8.26%

SMILES	hERG current change (%, negative = inhibition) at 10uM
COCCNC(=O)CSc1nc2ccccc2c(=O)n1CC1CCCO1 (centres unmarked)	-11.9%
COC(=O)Cn1ccc(N(C)C)c(C#N)c1=O	16.5%
COc1ccc(OCC(=O)Nc2c3c(nn2-c2ccc(OC)cc2)CS(=O)(=O)C3)cc1	4.26%
CC(C)C(=O)c1cc2c(cc1NC(=O)Nc1cccc3ccccc13)OCCO2	-11%
NS(=O)(=O)c1ccc(NC(=S)Nc2nn(Cc3ccc(Cl)cc3Cl)cc2Cl)cc1	13.4%
N#Cc1cc2c(nc1SCC(=O)Nc1sc3c(c1C#N)CCC3)CCC2	1.68%
CN1C2CCC1CC(N(CCc1ccccc1)C(=O)c1ccc(Cl)cc1)C2.Cl (centres unmarked)	-83.2%
C[C@@H]1CC=C[C@H]2[C@H]1C(=O)N(Cc1ccccc1)[C@H]2c1ccc(/C=C/c2ccccc2)cc1F	4.34%
Cc1ccc(Cl)cc1NC(=O)Cn1c(C)csc1=O	16.2%
O=C(NC1CCSc2ccccc21)c1cccc(Cl)c1 (centres unmarked)	18%
C=CCS(=O)(=O)N1CCCC(Cc2ccccc2C)(C(=O)OCC)C1 (centres unmarked)	5.06%
CN(C)c1ccc(C(=O)N2CC(=O)N(CCc3ccccc3)C(=O)C2)cc1	-10.5%
O=c1[nH]c(SCc2ccccc2Cl)nc2c1CCC2	-4.58%
CC1=C(C#N)C(/C=N/OCc2ccc(F)cc2Cl)CC(=O)N1 (centres unmarked)	-4.43%
CC(NC(=O)C1CCN(C(=O)Nc2ccccc2)CC1)c1ccc(Cl)cc1 (centres unmarked)	-24.8%
COCCNC(=O)Cn1c(=O)n(C)c2ccccc21	11.3%
N/C(=N\OC(=O)c1cccc2ccccc12)c1ccc(Br)cc1	-7.48%
Br.CNc1nc2ccccc2n1CC(=O)c1ccccc1	9.8%
CCC(C)NC(=O)C1CCN(S(=O)(=O)c2cccc3nonc23)CC1 (centres unmarked)	9.13%
Nc1nc2sc3c(c2cc1C(=O)NCC(=O)O)CCCC3	18.2%
O=[N+]([O-])c1ccc2nc(C3CCCCC3)[nH]c2c1	-5.42%
O=C(CCNC(=O)c1ccco1)NCc1ccccc1	-8.78%
Cc1ccc(NC(=O)C(NCc2ccccn2)c2ccccc2)cc1 (centres unmarked)	0.256%

SMILES	hERG current change (%, negative = inhibition) at 10uM
Cc1ccc(C)c(NNC(N)=S)c1	14%
CCc1ccc(OCC(=O)NNC(=O)Cc2ccc(S(=O)(=O)N3CCOCC3)s2)cc1	-29.7%
CN(c1ccccc1)S(=O)(=O)c1ccc(C(=O)N2CCc3ccccc3C2)cc1	-28%
COC(=O)c1c(-c2ccc(C)cc2)csc1NC(=S)NC(=O)c1ccc(F)cc1	6.36%
CC(=O)c1ccc(NC(=O)/C(=C\c2ccccc2)NC(=O)c2ccco2)cc1	-17.8%
COC(=O)c1nn(-c2ccc(Oc3ccccc3)cc2)c(=O)cc1O	26.5%
O=C(CN1CCCCC1)NCC(=O)Nc1ccc(Br)cc1C(=O)c1ccccc1	-79.1%
CCCCC(=O)Nc1nnc(C)s1	4.73%
Cc1ccc(-c2nc(CSCC(=O)NCC3CCCO3)c(C)o2)cc1 (centres unmarked)	-1.25%
CN(CC(=O)Nc1ccc(F)cc1)S(=O)(=O)c1ccc2c(c1)c(=O)n(C)c(=O)n2C	13.7%
O=C1C=C(c2cccnc2)CCC1	13.5%
COc1ccc(Nc2nc3[nH]c(=O)cc(O)c3s2)cc1	14.2%
CCCCn1c(N)c(N(Cc2ccccc2OC)C(=O)c2cc(=O)[nH]c3ccccc23)c(=O)[nH]c1=O	17.1%
CCC(C)(C)NC(=O)C(OC(=O)c1cc2sccc2n1C)c1ccc(OC)cc1 (centres unmarked)	-6.58%
O=C(Nc1ccccn1)Nc1cccs1	13.4%
CC(=O)NS(=O)(=O)c1ccc(NC(=S)NC(=O)CC(C)C)cc1	25.5%
COC(=O)COc1ccc(S(=O)(=O)NCCC2=CCCCC2)cc1Cl	-10.1%
CCCOc1nc(SCCC)nc2c1cnn2-c1ccccc1	16.5%
CCC(C)NC(=O)/C(=C/c1ccco1)c1ccccc1 (centres unmarked)	-0.00562%
COc1ccc(C)cc1S(=O)(=O)N(C)CC(=O)Nc1ccc2c(c1)OCO2	-6.06%

— article PMC4336329 (PLoS ONE, 2015)
